The target of this test is T1, PLDβ2-YFP-HA (Arabidopsis thaliana) (UniProt O23078).
T1 sequence: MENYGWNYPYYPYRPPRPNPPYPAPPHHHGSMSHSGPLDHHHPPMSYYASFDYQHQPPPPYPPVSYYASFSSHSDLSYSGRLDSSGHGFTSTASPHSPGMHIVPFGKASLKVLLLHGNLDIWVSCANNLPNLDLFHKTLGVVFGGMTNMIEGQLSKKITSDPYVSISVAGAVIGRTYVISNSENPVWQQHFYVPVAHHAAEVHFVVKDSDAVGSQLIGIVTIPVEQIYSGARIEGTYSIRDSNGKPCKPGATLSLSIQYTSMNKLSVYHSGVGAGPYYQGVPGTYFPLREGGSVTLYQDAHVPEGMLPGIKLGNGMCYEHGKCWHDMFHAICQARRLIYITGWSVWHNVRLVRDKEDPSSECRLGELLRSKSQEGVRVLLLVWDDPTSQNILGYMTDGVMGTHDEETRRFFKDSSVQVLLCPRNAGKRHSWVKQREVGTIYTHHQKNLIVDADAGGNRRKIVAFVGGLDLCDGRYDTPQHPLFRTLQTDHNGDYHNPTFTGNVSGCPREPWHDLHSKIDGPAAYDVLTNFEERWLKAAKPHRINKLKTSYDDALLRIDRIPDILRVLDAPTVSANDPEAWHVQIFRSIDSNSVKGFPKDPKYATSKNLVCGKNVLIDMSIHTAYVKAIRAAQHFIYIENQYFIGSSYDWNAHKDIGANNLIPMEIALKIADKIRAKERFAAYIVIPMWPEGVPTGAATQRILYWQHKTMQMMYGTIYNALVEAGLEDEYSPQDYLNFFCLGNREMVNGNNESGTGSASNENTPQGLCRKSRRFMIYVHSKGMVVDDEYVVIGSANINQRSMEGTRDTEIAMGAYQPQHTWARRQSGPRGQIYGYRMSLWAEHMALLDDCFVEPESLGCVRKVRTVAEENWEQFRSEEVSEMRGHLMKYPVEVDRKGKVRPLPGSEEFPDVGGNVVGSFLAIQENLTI
In words: co-IP; PLD-YFP-HA and RPM1-Myc co-expressed in N. benthamiana leaves; microsomal fractions solubilised in 40 mM Tris-HCl pH 7.5, 150 mM NaCl, 1 mM DTT, 5 mM EDTA, 1% Triton X-100; PLD-YFP-HA precipitated with anti-GFP agarose beads at 4°C for 3 h; RPM1-Myc detected by blot.

No constants are given. Whether binding was seen depends on the method and setting. In cells and extracts the contact can be indirect. Sequences can lack the tags named with a protein.

B1: RPM1-Myc (35S::RPM1-Myc) (receptor, UniProt Q39214 1-926)
chain: MASATVDFGIGRILSVLENETLLLSGVHGEIDKMKKELLIMKSFLEDTHKHGGNGSTTTTTQLFQTFVANTRDLAYQIEDILDEFGYHIHGYRSCAKIWRAFHFPRYMWARHSIAQKLGMVNVMIQSISDSMKRYYHSENYQAALLPPIDDGDAKWVNNISESSLFFSENSLVGIDAPKGKLIGRLLSPEPQRIVVAVVGMGGSGKTTLSANIFKSQSVRRHFESYAWVTISKSYVIEDVFRTMIKEFYKEADTQIPAELYSLGYRELVEKLVEYLQSKRYIVVLDDVWTTGLWREISIALPDGIYGSRVMMTTRDMNVASFPYGIGSTKHEIELLKEDEAWVLFSNKAFPASLEQCRTQNLEPIARKLVERCQGLPLAIASLGSMMSTKKFESEWKKVYSTLNWELNNNHELKIVRSIMFLSFNDLPYPLKRCFLYCSLFPVNYRMKRKRLIRMWMAQRFVEPIRGVKAEEVADSYLNELVYRNMLQVILWNPFGRPKAFKMHDVIWEIALSVSKLERFCDVYNDDSDGDDAAETMENYGSRHLCIQKEMTPDSIRATNLHSLLVCSSAKHKMELLPSLNLLRALDLEDSSISKLPDCLVTMFNLKYLNLSKTQVKELPKNFHKLVNLETLNTKHSKIEELPLGMWKLKKLRYLITFRRNEGHDSNWNYVLGTRVVPKIWQLKDLQVMDCFNAEDELIKNLGCMTQLTRISLVMVRREHGRDLCDSLNKIKRIRFLSLTSIDEEEPLEIDDLIATASIEKLFLAGKLERVPSWFNTLQNLTYLGLRGSQLQENAILSIQTLPRLVWLSFYNAYMGPRLRFAQGFQNLKILEIVQMKHLTEVVIEDGAMFELQKLYVRACRGLEYVPRGIENLINLQELHLIHVSNQLVERIRGEGSVDRSRVKHIPAIKHYFRTDNGSFYVSLSS
B1: the binding entry is listed as “no binding”.

The values above are taken from article PMC6345720.
